# According to PMC6919601, “Identification of Plasmodium dipeptidyl aminopeptidase allosteric inhibitors by high throughput screening” (PLoS ONE, 2019):
# Where “and” joins values, the source holds several entries; their conditions need not be identical. Equal values may be shown once. About 230 (0.21%) of roughly 110,000 compounds showed an effect of 50% or more. Some of the results follow.
# Biological target: DPAP1 (Plasmodium falciparum, UniProt Q8IIJ9)
# Experiment: primary screen, percent inhibition; read by cleavage of a fluorogenic dipeptide substrate; higher = more effect of the substance
# Parameters: species or system P. falciparum D10 trophozoite lysates; single well
# 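Further: 30 min substrate incubation versus DMSO and 10 µM JCP410 controls.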
# Sequence of DPAP1 (Q8IIJ9 whole entry, looked up): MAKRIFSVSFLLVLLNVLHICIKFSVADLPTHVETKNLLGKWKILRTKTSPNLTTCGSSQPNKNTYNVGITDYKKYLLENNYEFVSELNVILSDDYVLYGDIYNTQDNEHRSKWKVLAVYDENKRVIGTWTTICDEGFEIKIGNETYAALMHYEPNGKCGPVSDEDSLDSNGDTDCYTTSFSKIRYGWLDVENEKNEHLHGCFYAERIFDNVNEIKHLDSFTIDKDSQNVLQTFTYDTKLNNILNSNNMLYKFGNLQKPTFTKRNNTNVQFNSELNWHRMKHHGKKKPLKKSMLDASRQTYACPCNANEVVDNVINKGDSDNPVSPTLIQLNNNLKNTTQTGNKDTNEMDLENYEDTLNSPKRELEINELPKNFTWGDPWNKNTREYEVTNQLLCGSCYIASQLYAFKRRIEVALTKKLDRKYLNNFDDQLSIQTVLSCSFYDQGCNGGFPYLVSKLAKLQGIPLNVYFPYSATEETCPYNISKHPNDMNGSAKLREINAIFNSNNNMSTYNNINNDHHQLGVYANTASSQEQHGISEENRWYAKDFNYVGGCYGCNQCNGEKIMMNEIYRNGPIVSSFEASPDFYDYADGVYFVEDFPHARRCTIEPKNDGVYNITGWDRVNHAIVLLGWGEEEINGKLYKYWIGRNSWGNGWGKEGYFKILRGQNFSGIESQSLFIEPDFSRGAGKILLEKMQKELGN
row,Compound,% Inhibition @ 10 uM
1,COc1cccc(CNC(=O)CNC(=S)N(Cc2ccccc2)Cc2cccnc2)c1,-0.406%
2,Cc1ccc(NC(=O)c2ccc(C)c([N+](=O)[O-])c2)cc1Cl,2.34%
3,CC(=O)Nc1cc(C(N)=O)cc(C(N)=O)c1,-5.11%
4,COc1ccc(-c2cc(C)no2)cc1S(=O)(=O)N1CCN(C2CCCCC2)CC1,-2.44%
5,CCN1CCCC1CNS(=O)(=O)c1ccc(-c2cc(C(F)(F)F)no2)s1 (stereo not shown),1.22%
6,N#CCNC(=O)[C@H](CC1CCCCC1)NC(=O)c1cccc(Br)c1,-1.83%
7,CN1CCN(C2CC(=O)N(c3cccc(Br)c3)C2=O)CC1 (stereo not shown),1.35%
8,COc1ccccc1-c1c(C)nn2c(-c3ccccc3)cc(C)nc12,2.73%
9,Cc1ccc2c(c1)n1cnnc1c1nncn21,0.974%
10,Cn1nnnc1SCCNCc1ccccc1C(F)(F)F,-3.49%
11,Cc1ccc(C)c(Cn2ncn3c(cc4cc(C)ccc43)c2=O)c1,-5.63%
12,CCOCCCNc1oc(/C=C/c2ccc(OCC)cc2)nc1C#N,5.68%
13,CCCCCCN1C(=O)C(=O)c2ccccc21,0.121%
14,CCOC(=O)N1CCC(NC(=O)c2cccnc2SC)CC1,0.238%
15,COc1ccc(N2CCN(Cc3sccc3C)CC2)cc1,-6.47%
16,COc1ccc(-c2nc(CSCC(=O)NC(C)CCc3ccccc3)c(C)o2)cc1 (stereo not shown),0.475%
17,O=C(Nc1ccc(Cl)cc1)NC1CCCC1,-1.29%
18,CCOc1ccccc1CNc1ncc(-c2cccc(Cl)c2)n1C,-4.78%
19,CC1CCc2c(sc(NC(=O)CCC(=O)O)c2C#N)C1 (stereo not shown),2.67%
20,CCOc1ccc(/C=C2\NC(=O)NC2=O)c2ccccc12,4.18%
21,CC(=O)C1=C(C)N=C(S)NC1c1ccco1 (stereo not shown),0.962%
22,Cc1nc(C)c(-c2csc(Nc3ccc(Br)cc3)n2)s1,-0.546% and 1.35%
23,Nc1nonc1-n1cc(-c2ccccc2)nn1,-7.35%

row,Compound,% Inhibition @ 10 uM
1,O=[N+]([O-])c1ccccc1CN1CCN(c2ccccc2F)CC1,-0.828%
2,O=C(NCc1ccccc1)C1CCCN(c2nc3ccccc3n3cccc23)C1 (stereo not shown),5.3%
3,CCC(CC)C(=O)Nc1ccccc1C(=O)O,-3.76%
4,Cc1nc2ccc(S(=O)(=O)NC(CC(C)C)C(=O)NCc3ccccn3)cc2s1 (stereo not shown),3.75%
5,Cc1[nH]c2ccccc2c1CCn1c(N)cc(=O)[nH]c1=O,0.503%
6,COc1cccc(-c2nc3sc(-c4cccc(OC)c4)nc3s2)c1,2.57%
7,CCOc1ccc(CCNC(=O)c2sc3nc4n(c(=O)c3c2C)CCCCC4)cc1,2.89%
8,CC(O)CN(Cc1ccc(F)c(Br)c1)CC(C)O (stereo not shown),-1.21%
9,C=CCN1C(=S)NC2CC1(C)Oc1c(OC)cccc12 (stereo not shown),-2.01%
10,CN(C(=O)C(CC1CCCCC1)C(=O)NCC#N)C(C)(C)C (stereo not shown),-5.21%
11,COc1cc(NC(=O)c2ccc(Cl)cc2)c(Cl)cc1NC(=O)c1cccnc1,0.408%
12,CC(C)N1CCN(c2ccc(C(=O)N3CCCC3)cn2)CC1,1.94%
13,Cc1ccc(/C=C2\C(=O)C3CCN2CC3)cc1,-3.23%
14,CC(C)NS(=O)(=O)c1ccc(N2CCN(C)CC2)nc1,-9.08%
15,COc1ccc2ccccc2c1C1C(C#N)=C(N)Oc2[nH]nc(C(C)(C)C)c21 (stereo not shown),2.68%
16,Cc1nn(CCCC(=O)NCCCOC(C)C)c(=O)c2cc3sccc3n12,4.95%
17,CC(=O)C1=C(C)N=C2C(=C(O)c3ccccc32)C1c1ccc(Br)cc1 (stereo not shown),1.57%
18,Cc1cccc(Cc2c(C)nc3nc(SCC(=O)N4CCCC4)nn3c2C)c1,-2.04%
19,CCSc1nc(O)c2c(n1)-c1ccccc1CC21CCCC1,-0.436%
20,CCOC(=O)Nc1sc(C(=O)OCC)c(C)c1C(=O)OCC,16.1%
21,O=C(Cn1ccc2ccccc2c1=O)NCc1ccc2c(c1)OCO2,-1.51%
22,CC(=O)Nc1ccc(N2C(=O)NC(NC(=O)c3ccccc3)(C(F)(F)F)C2=O)cc1 (stereo not shown),1.61%
23,CC(C)CCNC(=O)C1CCCN1S(=O)(=O)c1cccc2nsnc12 (stereo not shown),1.26%

row,Compound,% Inhibition @ 10 uM
1,COc1cc2ccccc2cc1C(=O)NCCOC12CC3CC(CC(C3)C1)C2,5.38%
2,O=C(O)c1ccc(NC(=O)c2ccc([N+](=O)[O-])cc2)cc1,-6.82%
3,O=c1c(Cc2cc(Cl)cc(Cl)c2O)c(O)nc2n1CCCS2,4.41%
4,CCn1nccc1C(=O)Nc1ccc(C)c(F)c1,1.19%
5,Nc1nonc1-c1nc2ccccc2n1CC(=O)NCc1ccccc1,-3.63%
6,CN(C)CCCN(CCCN(C)C)Cc1ccc(Br)cc1,-3.57%
7,CC(C)=CCCC1(C)OC(=O)N(CCNC(=O)c2ccnn2C)C1(C)O (stereo not shown),2.36%
8,COc1cccc(OC)c1C(=O)Nc1nc2c(s1)CCCC2,-0.865%
9,CC1CC(C)CN(Cc2csc3c2CCCC3)C1 (stereo not shown),3.88%
10,Cc1oc(-c2ccccc2F)nc1CN1CCC(C(=O)NC2CCCc3ccccc32)CC1 (stereo not shown),-2.85%
11,CCN(CCN(C)C)Cc1ccc(Br)cc1,-6%
12,CCC1CCc2c(sc(NC(=O)C3C4CCC(O4)C3C(=O)O)c2C(N)=O)C1 (stereo not shown),-2.32%
13,CCOC(=O)c1sc(NC(=O)CN2CCCCC2)c(C(=O)OCC)c1C,-2.59% and -5.39%
14,COc1ccc(CN(C)C2CCN(C)CC2)cc1OC,-4.94%
15,COc1ccc(C2(C)CCc3oc4ccccc4c3-c3oc(C)cc32)cc1 (stereo not shown),0.345%
16,COc1ccc(CN2CCC(=O)NC2=O)cc1,-5.64%
17,Cc1ccc(C(=O)NCCN2CCN(C(=O)c3ccc(C)c(C)c3)CC2)cc1C,-5.23%
18,COc1cc(C=C2C(=O)N(C)C(=O)N(C)C2=O)cc(Cl)c1OCCOc1ccc(C)cc1,-2.26%
19,COc1nc(C)nc(N(C)C(=O)NS(=O)(=O)Nc2ccc(Br)cn2)n1,-4.61%
20,COc1ccccc1-c1nc2s/c(=C\c3ccc(C)cc3)c(=O)n2n1,-2.98%
21,Clc1ccc(CN2CCN(Cc3ccccc3)CC2)cc1,1.55%
